From the supplement of paper PMC12217912
Some of the results follow. Sequences were assembled here from the parent chain. Values near 0.05 are background.

B1: TEV protease; numbered along this chain (parent)
chain: MGESLFKGPRDYNPISSSICHLTNESDGHTTSLYGIGFGPFIITNKHLFRRNNGTLVVQSLHGVFKVKDTTTLQQHLVDGRDMIIIRMPKDFPPFPQKLKFREPQREERICLVTTNFQTKSMSSMVSDTSCTFPSGDGIFWKHWIQTKDGQCGSPLVSTRDGFIVGIHSASNFTNTNNYFTSVPKNFMELLTNQEAQQWVSGWRLNADSVLWGGHKVFMVKPEEPFQPVKEATQL

Variants of: B1
Assay: raw area under fraction-flipped curve 0-4 h after induction (AUC4h, not background-subtracted), DNA-recorder readout of cleavage of the substrate (dimensionless); higher = more cleavage of the substrate by the protease variant
Settings: temperature: 34 °C; time window: 0-4 h after rhamnose induction
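Note: Bxb1 expression induced with 0.2% (w/v) L-rhamnose at OD600 near 0.5, cultures sampled hourly, flipped fraction per protease–substrate barcode pair counted by paired-end Illumina sequencing.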

Row | Variant | area with substrate ENLYCQS | area with substrate ENLYDQS | area with substrate ENLYEQS | area with substrate ENLYGQS | area with substrate ENLYHQS | area with substrate ENLYKQS | area with substrate ENLYMQS | area with substrate ENLYPQS | area with substrate ENLYQQS | area with substrate ENLYRQS | area with substrate ENLYVQS | area with substrate ENLYYQS | area with substrate ENLYIQS | area with substrate ENLYLQS | area with substrate ENLYNQS | area with substrate ENLYSQS | area with substrate ENLYTQS | area with substrate ENLYWQS
1 | T72R | 0.0572 | 0.063 | 0.0685 | 0.0617 | 0.0632 | 0.0487 | 0.0827 | 0.0665 | 0.0657 | 0.0658 | 0.137 | 0.0537 | – | – | – | – | – | –
2 | N13T | 0.0991 | 0.0515 | 0.0732 | 0.0632 | 0.0699 | 0.0201 | 0.0774 | 0.0692 | 0.0574 | 0.0672 | 0.136 | 0.0551 | 0.103 | 0.0838 | 0.0694 | 0.0775 | 0.0949 | 0.0704
3 | N13W | 0.0594 | 0.0569 | 0.063 | 0.0717 | 0.0723 | 0.0615 | 0.0728 | 0.0688 | 0.063 | 0.0686 | 0.114 | 0.0208 | 0.0987 | – | 0.0656 | – | – | 0.069
4 | V64T | 0.0738 | – | 0.0692 | 0.0605 | 0.0655 | 0.0559 | – | – | – | 0.0808 | – | 0.0704 | – | – | – | 0.0658 | – | 0.0905
5 | P104L | 0.0303 | 0.0608 | 0.0554 | 0.0425 | 0.0625 | 0.0484 | 0.0483 | – | 0.0527 | 0.0443 | 0.0608 | 0.0426 | 0.0579 | – | 0.0574 | – | – | 0.0581
6 | P104M | 0.0486 | 0.0613 | 0.0613 | 0.0477 | 0.0564 | 0.0649 | – | 0.0651 | 0.043 | 0.0645 | 0.0538 | 0.0517 | 0.0721 | 0.0565 | 0.0569 | 0.0529 | – | 0.0694
7 | P104I | 0.0616 | 0.0571 | 0.0609 | 0.0533 | 0.0607 | 0.0584 | 0.061 | 0.0521 | 0.0547 | 0.0586 | 0.0677 | 0.0543 | 0.0752 | – | 0.056 | 0.0661 | 0.0686 | 0.058
8 | S32Q | 0.0751 | 0.0737 | 0.0512 | – | 0.08 | 0.0817 | 0.0687 | 0.09 | 0.0591 | 0.065 | 0.0057 | 0.0394 | 0.105 | – | 0.0724 | 0.0957 | 0.077 | 0.0697
9 | S16H | 0.0875 | – | 0.0655 | 0.0565 | 0.0608 | 0.0595 | 0.107 | 0.0595 | – | 0.0588 | 0.114 | 0.0755 | 0.117 | – | 0.0533 | – | 0.0763 | 0.0254
10 | S16R | 0.0748 | 0.0614 | 0.075 | 0.0565 | 0.0675 | 0.0529 | 0.0908 | 0.102 | 0.0596 | 0.0528 | 0.132 | 0.0675 | 0.127 | – | 0.0767 | 0.0775 | 0.0813 | 0.0854
11 | S16Q | 0.0985 | 0.0606 | 0.0847 | 0.0696 | 0.066 | 0.0567 | 0.0934 | 0.077 | 0.0515 | 0.0619 | 0.0935 | 0.055 | 0.139 | 0.0878 | 0.0726 | 0.0691 | 0.0954 | 0.0962
12 | S16A | 0.0751 | 0.0433 | 0.0668 | – | 0.0634 | 0.0685 | 0.0955 | 0.0727 | – | 0.0758 | 0.126 | – | 0.106 | 0.101 | 0.0707 | 0.088 | 0.0944 | 0.0843
13 | S16V | 0.0928 | – | – | 0.0755 | 0.0673 | 0.0268 | – | 0.091 | 0.0674 | 0.0692 | 0.115 | – | 0.151 | 0.0691 | 0.0755 | – | 0.082 | 0.147
14 | D208Q | 0.0514 | 0.0664 | 0.0648 | 0.059 | 0.0598 | 0.0571 | – | 0.0602 | – | – | – | – | 0.0934 | – | – | – | 0.0818 | 0.0325
15 | D208E | 0.139 | 0.0626 | 0.0659 | – | 0.0682 | 0.0473 | 0.0831 | 0.0591 | 0.062 | 0.061 | – | – | – | – | 0.106 | – | – | 0.0826
16 | D128F | 0.127 | – | 0.0726 | 0.068 | 0.0749 | 0.0659 | – | 0.118 | – | – | – | 0.0438 | 0.136 | 0.103 | – | – | – | 0.107
17 | D128C | 0.0919 | 0.0739 | 0.0708 | 0.0722 | 0.111 | 0.067 | 0.103 | 0.0795 | – | – | 0.163 | – | – | – | 0.0751 | – | 0.109 | 0.111
18 | D128M | 0.151 | 0.0666 | 0.0965 | 0.0742 | 0.0547 | 0.0693 | – | 0.086 | 0.0669 | 0.0651 | 0.178 | 0.0632 | 0.163 | 0.108 | 0.0798 | 0.11 | 0.0992 | 0.101
19 | G8A | – | 0.0536 | 0.0622 | 0.0604 | – | – | – | 0.0699 | 0.0707 | – | – | – | – | – | 0.0738 | – | – | –
20 | E224Y | 0.0638 | 0.0673 | 0.0597 | 0.0761 | 0.0728 | 0.0662 | 0.0949 | – | 0.0802 | 0.0731 | 0.102 | – | – | – | 0.0726 | 0.0952 | – | 0.056
21 | L56P | 0.0508 | 0.0523 | 0.0484 | 0.0497 | 0.0436 | – | 0.0416 | 0.0542 | 0.0508 | 0.0509 | 0.0505 | 0.0382 | 0.0407 | 0.0331 | 0.0495 | 0.0352 | 0.0286 | 0.0558
22 | K120W | 0.0769 | 0.0616 | – | 0.0635 | 0.0624 | – | 0.0715 | 0.0741 | 0.0668 | 0.0719 | – | – | 0.163 | – | 0.0799 | – | – | –
23 | K120Y | 0.0769 | 0.0617 | 0.0617 | 0.0614 | 0.0633 | 0.0681 | 0.112 | 0.0837 | 0.0686 | 0.0722 | – | 0.0754 | 0.0913 | – | 0.0646 | 0.0633 | – | 0.0755
24 | H168K | – | 0.0586 | 0.0704 | 0.0576 | 0.0585 | – | 0.0539 | 0.0714 | 0.0626 | 0.0625 | 0.0527 | – | 0.0439 | – | 0.0629 | 0.0587 | – | 0.0628
25 | P14I | 0.0725 | 0.0612 | 0.0638 | 0.0574 | 0.0651 | 0.0682 | 0.0731 | 0.0673 | 0.0461 | 0.0613 | 0.101 | – | 0.114 | – | 0.0663 | 0.0687 | 0.0417 | 0.0587
